This passage reports binding results from paper PMC8408167.

Amino acid sequences for entries named in this document (tags omitted). A change or cut given only in a name is not applied to a line headed by its entry.
UniProt P53350: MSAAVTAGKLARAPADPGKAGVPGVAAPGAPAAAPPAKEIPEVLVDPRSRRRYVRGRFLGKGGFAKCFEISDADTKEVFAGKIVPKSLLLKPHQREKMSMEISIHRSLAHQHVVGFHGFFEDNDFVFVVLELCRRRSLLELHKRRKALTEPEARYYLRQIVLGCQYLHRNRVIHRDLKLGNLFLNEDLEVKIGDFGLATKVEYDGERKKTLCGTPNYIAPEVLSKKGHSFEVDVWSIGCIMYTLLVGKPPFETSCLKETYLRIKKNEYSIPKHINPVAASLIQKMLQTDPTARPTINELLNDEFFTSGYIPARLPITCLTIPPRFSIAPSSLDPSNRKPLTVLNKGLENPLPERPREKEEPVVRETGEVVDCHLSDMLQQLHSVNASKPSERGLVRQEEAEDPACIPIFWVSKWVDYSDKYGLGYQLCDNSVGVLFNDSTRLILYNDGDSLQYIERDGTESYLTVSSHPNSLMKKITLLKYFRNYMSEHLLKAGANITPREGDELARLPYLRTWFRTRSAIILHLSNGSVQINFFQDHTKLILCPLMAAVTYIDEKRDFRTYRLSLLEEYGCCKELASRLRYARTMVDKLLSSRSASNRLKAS
UniProt P20152: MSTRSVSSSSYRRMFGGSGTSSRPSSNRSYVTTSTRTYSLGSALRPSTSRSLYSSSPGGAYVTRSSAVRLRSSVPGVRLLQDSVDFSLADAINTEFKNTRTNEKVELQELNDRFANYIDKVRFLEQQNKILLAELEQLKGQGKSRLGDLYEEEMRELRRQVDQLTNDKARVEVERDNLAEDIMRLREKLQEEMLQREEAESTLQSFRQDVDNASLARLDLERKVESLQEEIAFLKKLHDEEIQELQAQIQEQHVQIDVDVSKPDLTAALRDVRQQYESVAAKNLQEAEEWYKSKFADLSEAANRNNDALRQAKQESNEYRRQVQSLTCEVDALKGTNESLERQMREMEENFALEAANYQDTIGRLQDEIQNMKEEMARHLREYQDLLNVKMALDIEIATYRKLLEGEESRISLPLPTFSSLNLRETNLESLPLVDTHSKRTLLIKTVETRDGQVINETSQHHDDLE
UniProt P08670: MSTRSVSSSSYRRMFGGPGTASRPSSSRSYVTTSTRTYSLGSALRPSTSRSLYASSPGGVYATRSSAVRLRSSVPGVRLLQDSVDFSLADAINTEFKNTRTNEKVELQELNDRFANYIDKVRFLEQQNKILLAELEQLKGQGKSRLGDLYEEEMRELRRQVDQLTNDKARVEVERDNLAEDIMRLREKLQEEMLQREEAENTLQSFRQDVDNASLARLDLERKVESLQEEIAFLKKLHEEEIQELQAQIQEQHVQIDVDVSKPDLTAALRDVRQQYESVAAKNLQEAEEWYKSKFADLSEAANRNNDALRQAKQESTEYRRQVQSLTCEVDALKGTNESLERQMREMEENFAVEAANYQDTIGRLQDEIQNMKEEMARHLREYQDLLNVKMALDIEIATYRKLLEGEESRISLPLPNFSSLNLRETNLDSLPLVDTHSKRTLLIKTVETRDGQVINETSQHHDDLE
UniProt Q15796: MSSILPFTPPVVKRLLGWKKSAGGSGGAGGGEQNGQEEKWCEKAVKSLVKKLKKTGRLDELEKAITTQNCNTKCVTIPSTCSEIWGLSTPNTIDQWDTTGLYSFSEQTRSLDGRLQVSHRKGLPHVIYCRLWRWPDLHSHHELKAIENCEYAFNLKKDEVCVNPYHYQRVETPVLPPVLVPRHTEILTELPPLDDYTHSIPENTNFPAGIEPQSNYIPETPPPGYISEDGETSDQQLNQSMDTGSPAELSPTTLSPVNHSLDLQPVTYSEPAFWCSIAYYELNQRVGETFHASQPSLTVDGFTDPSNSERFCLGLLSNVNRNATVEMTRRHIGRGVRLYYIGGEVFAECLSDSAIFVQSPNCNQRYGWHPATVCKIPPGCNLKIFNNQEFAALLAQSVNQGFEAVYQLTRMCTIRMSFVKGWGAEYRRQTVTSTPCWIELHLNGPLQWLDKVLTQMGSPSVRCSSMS

Assay [1] deals with PLK1 (endogenous) (human (endogenous in A549 and NCI-H460)) (UniProt P53350). Kind of assay: co-IP; lysates of A549 and NCI-H460 cells, with or without 2.5 ng/ml TGF-β for 48 hours; anti-PLK1 or normal IgG for 16 h at 4 °C, protein A/G agarose, four washes with lysis buffer; blot with anti-vimentin.
Assay [2] deals with RFP-tagged mouse vimentin S339E (phosphomimetic) (mouse) (UniProt P20152). Kind of assay: co-IP; whole-cell lysates of NCI-H460 cells expressing vimentin (Supplementary Fig. 7a).
Assay [3] concerns the target RFP-tagged mouse vimentin S339A (non-phosphomimetic) (mouse) (UniProt P20152). The assay is described as follows: co-IP; nuclear lysates of NCI-H460 cells; anti-vimentin or normal IgG for the precipitation; blots with anti-RFP, anti-p-Smad2, anti-Smad2/3, anti-histone H1.
For assay [4], the target named is RFP-tagged mouse vimentin S339E (phosphomimetic) (mouse) (UniProt P20152). Described as above.

Results are given in words; binding and its absence hold for the method and conditions named. In cells and extracts the contact can be indirect. Some results given as binding are weak or reduced against the parent protein; the word gives no strength.

“vimentin (endogenous) (from UniProt P08670 1-466)”: in assay [1], the binding result is recorded as “binds”.

With “p-Smad2 (endogenous Smad2 phosphorylated at S465/S467) (from UniProt Q15796 1-467)”, the results for the binding result in assay [2], in assay [3] and in assay [4] were “binds”, “no binding” and “binds”, respectively.

For “Smad2/3 (endogenous) (from UniProt Q15796 1-467; P84022 1-425) (complex)”, the binding entry in assay [2] and in assay [4] was “binds” in each case.
